{"source": "PubChem BioAssay AID1508642", "about": "(National Center for Advancing Translational Sciences (NCATS), 2021)", "note": "About 200 (0.47%) of roughly 43,000 compounds were called active. Inconclusive results, whose numbers are uncertain, are shown with a selection of clear calls. Calls follow the shape of the dose curve; as a rule, active = well fitted cell-killing curve with a large enough effect; inconclusive = small, poorly fitted or top-dose-only effect, or effect the other way; inactive = flat fitted curve, though single readings scatter. Where the call is inconclusive, the potency comes from a doubtful curve fit. % is scaled to controls: 0 for no effect and ±100 for the full control effect; potency is read from the fitted curve at half-maximal effect; tags tell the direction and shape of the fitted curve.", "data": [{"assay": "Cell viability qHTS assay in S16 Pmp22-F2sN cells; also: nearly all actives have a fitted effect of over 65% in size", "settings": "S16 Pmp22-F2sN Schwann cells viability, CellTiter-Glo, 24 h; activity change, negative = cytotoxicity: at 57.5 µM (top of the series)", "procedure,_shortened": "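S16 Pmp22-F2sN Schwann cells (500-1,000/well) in phenol-red-free DMEM with 10% FBS received 23 nL compound by pin tool for 24 h at 37 °C. Viability was then read as CellTiter-Glo luminescence after 15 min at room temperature.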", "values": [{"smiles": "COc1cc2c(=O)n(CCC(=O)NCC3CCCO3)c(=O)n(CC(=O)Nc3ccc(C)cc3)c2cc1OC", "note": "(stereo not drawn)", "Potency": "inconclusive: 0.355 µM [cytotoxic, partial curve, poor fit]"}, {"smiles": "O=C1CN(C(=O)c2ccc(S(=O)(=O)N3CCCCC3)cc2)C(c2ccc(F)cc2)c2cc(F)ccc2N1", "note": "(stereo not drawn)", "Potency": "inconclusive: 39.8 µM [cytotoxic, partial curve, poor fit]"}, {"smiles": "COc1ccc(-c2cnnn2-c2ccc(NC(=O)c3ccc(S(=O)(=O)N(C)C)cc3)cc2)cc1", "Potency": "inconclusive: 28.2 µM [cytotoxic, single point]"}, {"smiles": "COc1ccc(-c2cnnn2-c2ccc(NC(=O)c3c(F)cccc3F)cc2)cc1", "Potency": "inconclusive: 31.6 µM [cytotoxic, partial curve, poor fit]"}, {"smiles": "CCOc1ccccc1/C=C/c1onc(C)c1S(=O)(=O)N1CCC(C(=O)N(CC)CC)CC1", "Potency": "inconclusive: 22.4 µM [cytotoxic, partial curve]"}, {"smiles": "Cc1ccc(NC(=O)Cn2c(=O)n(CCCCCC(=O)NCc3ccc(F)cc3)c(=O)c3sccc32)cc1C", "Potency": "inconclusive: 35.5 µM [cytotoxic, single point]"}, {"smiles": "COc1ccc(NC(=O)c2c(NCc3ccc(C)o3)sc3c2CCC(C)C3)c(OC)c1", "note": "(stereo not drawn)", "Potency": "inconclusive: 39.8 µM [cytotoxic, single point]"}, {"smiles": "COc1ccc(C(=O)NCc2nnc(SCC(=O)Nc3ccccc3)n2-c2ccc(F)cc2)cc1", "Potency": "inconclusive: 22.4 µM [rising, partial curve, poor fit]"}, {"smiles": "COC(=O)c1c(-c2ccc(Cl)cc2)noc1N1CCN(c2ccc(OC)cc2)CC1", "Potency": "inconclusive: 1.12 µM [cytotoxic, partial curve, poor fit]"}, {"smiles": "COc1ccccc1N1CCN(S(=O)(=O)c2c(C)sc3ncn(CC(=O)Nc4cccc(Cl)c4)c(=O)c23)CC1", "Potency": "inconclusive: 4.47 µM [cytotoxic, partial curve, poor fit]"}, {"smiles": "Cc1ccc(Cl)cc1N1CCN(c2ncnc3onc(C)c23)CC1", "Potency": "inconclusive: 25.1 µM [cytotoxic, partial curve]"}, {"smiles": "Clc1ccc(N2CCN(c3ncnc4c3nc3n4CCCC3)CC2)cc1", "Potency": "inconclusive: 3.55 µM [cytotoxic, partial curve]"}, {"smiles": "CCC(=O)N1CCc2cc(Br)cc(S(=O)(=O)N3CCCC(C(=O)N(C)c4ccc(Br)cc4)C3)c21", "note": "(stereo not drawn)", "activity change, negative = cytotoxicity": "inactive: -7.27%"}, {"smiles": "CCC(=O)N1CCc2cc(S(=O)(=O)NC(C(=O)Nc3ccc(C(C)=O)cc3)C(C)C)ccc21", "note": "(stereo not drawn)", "activity change, negative = cytotoxicity": "inactive: 1.35%"}, {"smiles": "Cc1ccc(OCC(=O)Nc2ccc3nc(SCC(=O)N4CCc5ccccc54)sc3c2)cc1", "activity change, negative = cytotoxicity": "inactive: 0.262%"}, {"smiles": "Cc1cc(Nc2cccc(Cl)c2)nc2ccc(NC(=O)c3cccnc3)cc12", "Potency": "inconclusive: 39.8 µM [cytotoxic, single point]"}, {"smiles": "CCSc1ncc(Cl)c(C(=O)Nc2ccc(S(=O)(=O)N(C)c3ccccc3)cc2)n1", "activity change, negative = cytotoxicity": "inactive: -22.9%"}, {"smiles": "CCc1ccccc1NC(=O)Nc1cc(C(=O)NCc2ccc(C)cc2)ccc1N1CCCC1", "Potency": "inconclusive: 11.2 µM [cytotoxic, partial curve]"}, {"smiles": "COc1ccc(Br)cc1C(=O)Nc1nc2ccc(F)cc2s1", "activity change, negative = cytotoxicity": "inactive: -3.7%"}, {"smiles": "O=c1c(S(=O)(=O)c2ccccc2)cn(Cc2ccccc2)c2cc(N3CCOCC3)c(F)cc12", "Potency": "inconclusive: 39.8 µM [cytotoxic, single point]"}, {"smiles": "COc1ccc2cc(-c3nc4ccc(C(=O)O)cc4[nH]3)c(=O)oc2c1", "activity change, negative = cytotoxicity": "inactive: -3.32%"}, {"smiles": "CCc1ccc(NC(=O)C(=O)NCCc2csc(-c3ccc(C(F)(F)F)cc3)n2)cc1", "Potency": "inconclusive: 3.98 µM [rising, full curve, poor fit]"}, {"smiles": "COc1cccc(-c2ccc3c(N)c(C(=O)c4ccc(Cl)cc4)sc3n2)c1", "activity change, negative = cytotoxicity": "inactive: -12.1%"}, {"smiles": "CCOC(=O)c1ccc(N2C(=O)c3n[nH]c(-c4cccs4)c3C2c2ccc(C(C)(C)C)cc2)cc1", "note": "(stereo not drawn)", "activity change, negative = cytotoxicity": "inactive: -0.651%"}, {"smiles": "COc1cc(-c2nc3ncccn3c2Nc2ccc(C)cc2C)ccc1O", "Potency": "inconclusive: 39.8 µM [cytotoxic, partial curve, poor fit]"}, {"smiles": "CCCCOc1cccc(C(=O)Nc2ccc3oc(-c4cccnc4)nc3c2)c1", "Potency": "inconclusive: 17.8 µM [rising, partial curve, poor fit]"}, {"smiles": "CCOc1ccc(-c2nnc(SCC(=O)NCc3ccccc3)nc2-c2ccc(OCC)c(OC)c2)cc1OC", "Potency": "inconclusive: 31.6 µM [cytotoxic, partial curve, poor fit]"}, {"smiles": "CCOc1ccc(NCc2cccn2-c2nnc(N3CCC(C(=O)NCCc4ccc(OC)c(OC)c4)CC3)s2)cc1", "Potency": "inconclusive: 25.1 µM [cytotoxic, single point]"}, {"smiles": "Cc1ccc2[nH]c(CSc3nnc(NC(=O)c4ccccc4C)s3)cc(=O)c2c1", "Potency": "inconclusive: 22.4 µM [cytotoxic, partial curve, poor fit]"}, {"smiles": "CC(C)CCNC(=O)Nc1ccc2c(c1)N(C)C(=O)c1ccccc1S2", "Potency": "inconclusive: 39.8 µM [cytotoxic, single point]"}, {"smiles": "COC(=O)CS(=O)(=O)c1nc2ccccc2nc1N1CCCCC1", "Potency": "inconclusive: 8.91 µM [rising, partial curve]"}, {"smiles": "O=C(COc1ccccc1Cl)OCc1cc(=O)n2nc(C3CC3)sc2n1", "Potency": "inconclusive: 39.8 µM [cytotoxic, partial curve, poor fit]"}, {"smiles": "COC(=O)c1ccc(NC(=O)CSc2cn(CC(=O)N3CCCCCC3)c3ccccc23)cc1", "Potency": "inconclusive: 39.8 µM [cytotoxic, partial curve, poor fit]"}, {"smiles": "Cc1ccc(OCC(=O)OCc2cc(=O)n3nc(-c4cccs4)sc3n2)cc1", "Potency": "inconclusive: 39.8 µM [rising, single point]"}, {"smiles": "O=C(C1CCC1)N1CCCc2cc(S(=O)(=O)Nc3ccc(F)cc3)ccc21", "Potency": "inconclusive: 28.2 µM [cytotoxic, partial curve, poor fit]"}, {"smiles": "CCN1CCN(c2c(S(=O)(=O)c3ccccc3)cnc3ccc(Cl)cc23)CC1", "Potency": "inconclusive: 20 µM [cytotoxic, partial curve]"}, {"smiles": "CCC(=O)N1CCCc2cc(S(=O)(=O)Nc3ccc(C)c(C)c3)ccc21", "Potency": "inconclusive: 28.2 µM [cytotoxic, single point]"}, {"smiles": "O=C(Nc1ccc2nc(SCC(=O)N3CCCc4ccccc43)sc2c1)c1ccc(F)cc1", "Potency": "inconclusive: 22.4 µM [cytotoxic, single point]"}, {"smiles": "COc1ccc(NC(=O)CSc2nc(-c3ccccc3)nc3cc(=O)[nH]n23)cc1", "Potency": "inconclusive: 5.62 µM [cytotoxic, partial curve, poor fit]"}, {"smiles": "CCc1ccc(-c2csc(-c3cc4cc(Br)ccc4oc3=O)n2)cc1", "Potency": "inconclusive: 39.8 µM [rising, single point]"}, {"smiles": "Cc1ccc(C)c(N2CCN(C(=O)Cn3nc(Cc4cccnc4)c4ccccc4c3=O)CC2)c1", "Potency": "inconclusive: 15.8 µM [cytotoxic, partial curve, poor fit]"}, {"smiles": "CCn1c(=O)cc(SCC(=O)N2CCN(c3cc(C)ccc3C)CC2)c2ccccc21", "Potency": "inconclusive: 39.8 µM [cytotoxic, single point]"}, {"smiles": "Cc1cccc(Cn2c(SCc3ccc(C(=O)NC4CCCCC4)cc3)nc3cccnc32)c1", "Potency": "inconclusive: 35.5 µM [cytotoxic, single point]"}, {"smiles": "COc1ccc(Cl)cc1NC(=O)CSC1=Nc2ccccc2C2=NC(CC(=O)NCc3ccc4c(c3)OCO4)C(=O)N12", "note": "(stereo not drawn)", "Potency": "inconclusive: 39.8 µM [cytotoxic, single point]"}, {"smiles": "CCC(Oc1ccc(F)cc1)C(=O)Nc1nc(-c2ccc(F)cc2)ns1", "note": "(stereo not drawn)", "Potency": "inconclusive: 39.8 µM [cytotoxic, single point]"}, {"smiles": "COc1cc(C2c3c(oc4ccccc4c3=O)C(=O)N2Cc2ccccc2Cl)ccc1O", "note": "(stereo not drawn)", "activity change, negative = cytotoxicity": "inactive: 2.63%"}, {"smiles": "CC(C)(C)c1ccc(C(=O)N2CC(=O)Nc3ccc(F)cc3C2c2ccc(F)cc2)cc1", "note": "(stereo not drawn)", "Potency": "inconclusive: 31.6 µM [cytotoxic, single point]"}, {"smiles": "Cc1ccc2nc(SCc3nc(-c4ccccc4C)no3)[nH]c2c1", "Potency": "inconclusive: 31.6 µM [cytotoxic, single point]"}, {"smiles": "Cc1ccc(N2CCN(C(=O)C3CCC(CNS(=O)(=O)c4ccc(Br)s4)CC3)CC2C)cc1", "note": "(stereo not drawn)", "activity change, negative = cytotoxicity": "inactive: -17.1%"}, {"smiles": "Cc1ccccc1Cn1c(Oc2ccccc2F)nc2c1c(=O)n(C)c(=O)n2C", "activity change, negative = cytotoxicity": "inactive: 3.38%"}, {"smiles": "O=C(c1ccco1)N1CCN(c2nc3ccc(Cl)cc3s2)CC1", "Potency": "inconclusive: 17.8 µM [cytotoxic, partial curve, poor fit]"}, {"smiles": "Cc1ccccc1OCC(=O)Nc1ccccc1C(=O)OCc1cc(=O)n2c(C)csc2n1", "activity change, negative = cytotoxicity": "inactive: -13.3%"}, {"smiles": "O=C(Nc1cccc(Cl)c1)c1ccc2nc(Cc3ccccc3)oc2c1", "Potency": "inconclusive: 28.2 µM [cytotoxic, single point]"}, {"smiles": "Cc1ccc2c(c1)N(C(=O)N1CCC(C(=O)NCCC3=CCCCC3)CC1)CC(C)O2", "note": "(stereo not drawn)", "Potency": "inconclusive: 39.8 µM [cytotoxic, single point]"}, {"smiles": "CCN(CC)CCCNC(=O)CCc1c(C)n(CC)c2cc(-c3ccccc3OC)nn2c1=O", "Potency": "inconclusive: 25.1 µM [rising, partial curve, poor fit]"}, {"smiles": "CCOc1ccc(CCNc2ncnc3onc(-c4ccc(F)cc4)c23)cc1OCC", "Potency": "inconclusive: 39.8 µM [cytotoxic, single point]"}, {"smiles": "COc1ccc(-c2c3c(nc4sc(C(=O)Nc5ccc(Cl)cc5)c(N)c24)CC(C)(C)CC3=O)cc1", "Potency": "inconclusive: 10 µM [cytotoxic, partial curve]"}, {"smiles": "COCCCNC(=O)Nc1cc(C(=O)NCc2ccc(OC)cc2)ccc1N1CCCC1", "Potency": "inconclusive: 25.1 µM [cytotoxic, partial curve, poor fit]"}]}]}
